These are yes or no findings as the source states them, for the method shown. Where a sequence is shown, tags or fusion partners need not be part of it.
How the values were obtained:
Test in all cases: ELISA; PEPSCAN ELISA; biotinylated EID2 peptides (400 nM) on streptavidin-coated plates; His-S-MAGEC2(129-339) 200–400 nM, 4°C overnight; anti-His detection; both purified
EID2 peptide #14 (F210A) = target: T1, EID2 peptide #14 (F210A) (human, F210A (stands in the printed letters), biotin, linked via the SGSG spacer)
T1 construct: source: synthetic peptide (Mimotopes)
T1 peptide: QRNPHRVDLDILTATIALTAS

EID2 peptide #17 (L214A) = target: T2, EID2 peptide #17 (L214A) (human, L214A (stands in the printed letters), biotin, linked via the SGSG spacer)
T2 construct: source: synthetic peptide (Mimotopes)
T2 peptide: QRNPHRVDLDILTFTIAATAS

EID2 peptide #2 (R198A) = target: T3, EID2 peptide #2 (R198A) (human, R198A (stands in the printed letters), biotin, linked via the SGSG spacer)
T3 construct: source: synthetic peptide (Mimotopes)
T3 peptide: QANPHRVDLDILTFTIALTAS

EID2 peptide #16 (I212A) = target: T4, EID2 peptide #16 (I212A) (human, I212A (stands in the printed letters), biotin, linked via the SGSG spacer)
T4 construct: source: synthetic peptide (Mimotopes)
T4 peptide: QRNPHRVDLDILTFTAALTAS

EID2 peptide #6 (R202A) = target: T5, EID2 peptide #6 (R202A) (human, R202A (stands in the printed letters), biotin, linked via the SGSG spacer)
T5 construct: source: synthetic peptide (Mimotopes)
T5 peptide: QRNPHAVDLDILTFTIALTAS

B1: His-S-MAGEC2(129-339) (domain or fragment, human, UniProt Q9UBF1 129-339, looked up)
chain: GLPDSESSFTYTLDEKVAELVEFLLLKYEAEEPVTEAEMLMIVIKYKDYFPVILKRAREFMELLFGLALIEVGPDHFCVFANTVGLTDEGSDDEGMPENSLLIIILSVIFIKGNCASEEVIWEVLNAVGVYAGREHFVYGEPRELLTKVWVQGHYLEYREVPHSSPPYYEFLWGPRAHSESIKKKVLEFLAKLNNTVPSSFPSWYKDALKD
notes: source: E. coli C41, purified (His-TRAP column, FPLC)
With B1 the binding (EID2 peptide #14 (F210A)) was “no binding (tested: less then 20% of WT affinity)”, the binding (EID2 peptide #17 (L214A)) was “no binding (tested: less then 20% of WT affinity)” and the binding (EID2 peptide #2 (R198A)) was “no binding (tested: less then 20% of WT affinity)”. For the same binder, the binding (EID2 peptide #16 (I212A)) was “no binding (tested: less then 20% of WT affinity)” and the binding (EID2 peptide #6 (R202A)) was “no binding (tested: less then 20% of WT affinity)”.
